Variants at the background level are over-represented here.
B1: TPR 5TU (parent)
chain: GGAUCUUCUCGAUCUAACAAAAAAGACAAAUCUGCCACAAAGCUUGAGAGCAUCUUCGGAUGCAGAGGCGGCAGCCUUCGGUGGCGCGAUAGCGCCAACGUUCUCAACUAUGACACGCAAAACGCGUGCUCCGUUGAAUGGAGUUUAUCAUG

Variants of: B1
Experiment: polymerase ribozyme fitness, log enrichment relative to wild type (log ratio); higher = more active; in vitro selection for triplet polymerase activity
In short: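 Each subunit of a heterodimeric triplet polymerase ribozyme was mutagenized into a library by PCR, transcribed, and subjected to one round of in vitro selection, run in triplicate. Libraries were annealed with a biotinylated primer, the partner subunit and triplets, incubated frozen at −7 °C, and extended constructs were gel-excised, captured on streptavidin beads and recovered by RT-PCR. Input and output libraries were sequenced on Illumina, keeping genotypes with ≥10 input reads and ≥1 read per output. Fitness is log base 2 of genotype enrichment divided by wild-type enrichment, from inverse-variance-weighted replicate averages.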

GGAUCUUCUGGAGCUAACAAAAAAGACAAAUCUGCCAAAAAGCUUGAGAGCAUCUUCGCAUGCAGAGGCGGCAGCCUUCGAUGGUGCGAUAGCGGCAACGUUCUCCACUAUGACACGCAAAACGCGUGCUCCGUUUAAUGGAGUUUAUCAUG [C10G U13G C38A G59C G81A C85U C95G A106C G136U] and GGAUCUUCUUGAUCUAACAAAUAAGACAAAUCUGACACAAAGCUUGAGAGCAACUUCCGAUGCAGAGGCGGCAGCCUUCAGUGGCGCGAUAGCGACAACGUGCUCAGCUAUGACACGCAAAACGCGUGCUCCGUUGAAUGGAGUUUAUCAUG [C10U A22U C35A U53A G58C G80A C95A U102G A107G] cannot be ordered by “polymerase ribozyme fitness (log ratio)” value: ≤ -4.2 for the first, ≤ -4.2 for the second.

GGAUCUUCUUGAUCUAACAAAAAAGUCAAAUCUGCCACCAAGCUUGAGAGCAUCUUCGGUUGCAGAGGCGGCAGCCUUCGGUGGCGCGAUAGCGCCAACGUUCUCAACUAUGCCACGCAAAACGCGUGCUCCGUUGAAUGGAUUUUAUCAUG [C10U A26U A39C A60U A113C G143U] and GGAUCUUCUUGAUCUAGCAAAAAAGACAAAUCUGCCACAAAGCUUGAGAGCAUCUUCGGAUGCAGAGGCGGCAGCCAUCGGUUGCGCGAUAGCGCCACCGCUCUCUACUAGGACACGCAAAACGCGUGCUCCGUUGAAUGGAGUUUAUCAUG [C10U A17G U77A G83U A98C U101C A106U U111G] cannot be ordered by “polymerase ribozyme fitness (log ratio)” value: ≤ -4.2 for the first, ≤ -4.2 for the second.

GGAUCUUCUUGAUCUAACAAAAAAGACAUAUCUGCCACAUAGCUUGAGAGCAUCUUCGGAUGCAGAGGCGGCAGCCUUCGGUGGCGCGAUAGUGCCAACGUUCUCAACUAUGACACGCAAAACGCGUGCUCCGUUGAAUGUAGUUUAUCAUG [C10U A29U A40U C93U G141U] and GGAUCUUCUUGAUCUAACAAAAUAGACAAAUCUGCCACAAAGCUUGAGAGCAUCUUCGGAUGCAGAGGCGGCAGCCUUCGGUGGCGCGAGAGCGCCAACGUUCUCAACUAUGACACGCAAAACGCGUGCUCCGUUGAAUGGAGUUUAUCAUG [C10U A23U U90G] cannot be ordered by “polymerase ribozyme fitness (log ratio)” value: ≤ -4.2 for the first, ≤ -4.2 for the second.

First: GGAUCUUCUUGAUCUAACAAAAAAGACAAAUCUGCCACAAUGCUUGAGAGCAUCUUCGGAUGCAGAGGCGGCAGCCUUCGGUGGCGCGAUACCGCCAACGUUCUCAACUAUGACACGCAAAACGCGUGCUCCGUUGAAGGGAGUUUAUCAUG [C10U A41U G92C U139G]
Second: GGAUCUUCUUGAUCUUACAAAAAAGACAAAUCUGCCACAAAGCUUGAGAGCAUCUUCGGAUGCAGAGGCGGCAGCCUUCGGUGGCGCGAUAGCGCCUACGUUCUCAACAAUGACACGCAAAACGCGUGCUCCGUUGGAUGGAGUUUAUCAUG [C10U A16U A97U U109A A137G]
The “polymerase ribozyme fitness (log ratio)” value of the first is higher: -4.06 for the first, ≤ -4.2 for the second.

GGAUCUUCUUGAUCUAACAAAAAAGGCAAAUCUGCCACAAAGCUUGAGAACAUCUUCGGAUGCAGAGGCGGCAGCCUUCGGUGGCGCGAUAGCGACAACGUUCUCAACUAUGACACGCAAAACGCGUGCUCCGUUGAAUGGAGUUUAUCAUG [C10U A26G G50A C95A] and GGAUCUUCUUGAUCUAACAAAAAAGACAAAUCUGCCACAGAGCUUGAGAGCAUCUUCGGAUGCAGAGGCGGCAGUCUUCGGUGGCGCGCUAGCGUCAAAGUUCUCAACUAUGACACGCAAAACGCGUGCUCCGUUGAAUGGAGUUUAUCAUG [C10U A40G C75U A89C C95U C99A] cannot be ordered by “polymerase ribozyme fitness (log ratio)” value: ≤ -4.2 for the first, ≤ -4.2 for the second.

GGAUCUUCUUGAUCUACCAAAAAAGACAAAUCUGCCACAAAGCUUGAGAGCAUCUUUGGAUGCAGAGGCGGCAGCCUUCGGUGGCGCGAUAGCGCCAACGUUCUCAACUAUGACACGCAAAACGCGUGCUCCUUUGAAUGGAGUUUAUCAUG [C10U A17C C57U G133U] and GGAUCUUCUUGAUCUAACUAAAUAGACAAAUCUGCCACAAAGCUUGAGAGCAUCUUUCGAUGCAGAGGCGGCAGUCUGCGGUGGCGCGAUAGCGUCAACGUUCUUAACUAUGACACGCAAAACGCGUGCUCCGUUGAAUGGAGUUUAUCAUG [C10U A19U A23U C57U G58C C75U U78G C95U C105U] cannot be ordered by “polymerase ribozyme fitness (log ratio)” value: ≤ -4.2 for the first, ≤ -4.2 for the second.

GGAUCUUCUUGAUCUACCAAAAAAGACAAAUCUGCCACAAAGCUUGAGAGCAUCUUCGGAUGCAGAGGCGGCAGCUUUCGGUGGAGCGAUAGCGGUAACGUUCUCAACUAUGACACGCAAAACGCGUGCUCCUUUGUAUGGAGUUUAACAUG [C10U A17C C76U C85A C95G C96U G133U A137U U148A] and GGAUCUUCUUGAUCUAACAAAAAAGACAAAUCUGCCACAACGCUUGAGAGCAUCUUCGGAUGCAGAGGCGGCAGCCUUCGGUGGCGCGAUAACGCCAAGGUUCUCAACUAUGACACGCAAAACGCGUGCUCCGUUGAAUGGAGAUUAUCAUG [C10U A41C G92A C99G U144A] cannot be ordered by “polymerase ribozyme fitness (log ratio)” value: ≤ -4.2 for the first, ≤ -4.2 for the second.

GGAUCUUCUUGAUCUAACAAAAAAGACAAAUCUGCCACCAAGCUUGAGAUCAUCUUCGGAUGCAGAGGCGGCAGCCUUCGGUGGCGAGAUAGCGUCUACGUUCUCAACUAUGACAAGCAAAACGCGUGCUCCGUUGAAUUGAGUUUAUCAUG [C10U A39C G50U C87A C95U A97U C116A G140U] and GGAUCUUCUGGAUCUAACAAAAAAGACAAAUCUGCCACAAAGCUUGAGAGCAGAUUCGGAUGCAGAGGCGGCAGCCUUCGGUGGCUCGAUAGCGCCAACGUUCUCAACUAUGACACGCAAAACGCGUGCUCCGUUGAAUGGAGUUUAUCAUG [C10G U53G C54A G86U] cannot be ordered by “polymerase ribozyme fitness (log ratio)” value: ≤ -4.2 for the first, ≤ -4.2 for the second.

GGAUCUUCUGGAUCUAACAAAAAAGACAAAUCUGCCACAAAGCUUGAGAGCAUCUACGGAUGCAGAGGCGGCAGCCUUCGGUGGCGCGAUAGCGCGAACGUUCUCAAGUAUGACACGCAAAACGCGUGCUCCGUUGAAUAGAGUUUAUCAUG [C10G U56A C96G C108G G140A] and GGAUCUUCUUGAUCUAACAAAAAGGAGAAAUCUGCCACAAAGCUUGAGAGCAUCUUCGGAUGCAGAGGCGGCAGCCUUCGGUGGCGCGAUAGCGCCAACGUUCUCAACUAUGACACGCAAAACGCGUGCUCCGUUGAAUGGUGUCUAUCAUG [C10U A24G C27G A142U U145C] cannot be ordered by “polymerase ribozyme fitness (log ratio)” value: ≤ -4.2 for the first, ≤ -4.2 for the second.

In the case of GGAUCUUCUUGAUCUAGCACAAAAGACAAAUCUGCCACAAAACUUGAGAGCAUCUUCGGAUGCAGAGGCGGCAGCAUUAGGUGGCGCGAUAGCGCCAACGUUCUCAACUAUGACACGCAAAACGCGUGCUCCGUUGAAUGGAGUUUAUCAUG [C10U A17G A20C G42A C76A C79A], the “polymerase ribozyme fitness (log ratio)” value is reported as ≤ -4.2.

Source: the RNAGym collection of RNA variant scans (doi:10.1073/pnas.2313332121)
